These results are taken from the RNAGym collection of RNA variant scans (doi:10.1093/nar/gkz1192).

The source gives no read counts; variants with many changes may rest on few reads.

B1: CPEB3 Ribozyme (parent)
chain: UAACAGGGGGCCACAGCAGAAGCGUUCACGUCGCAGCCCCUGUCAGAUUCUGGUGAAUCUGCGAAUUCUGCUGUAUAUCUC

The variants in this data set derive from B1. The data set is described as follows: self-cleavage, relative activity (ratio to wild type); higher = more cleavage; in vitro, sequencing. In short, it runs like this:
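After error-prone PCR and barcoding, CPEB3 ribozyme mutant libraries were transcribed with T7 RNA polymerase at 37°C for 5 hours, then given 15 min with DNase I before an EDTA stop, and they cleaved during both steps. Reverse transcription with template switching preceded Illumina sequencing. Relative activity divides a variant's cleaved/total read fraction by the unmutated ribozyme's. At least 5 reads were required per variant, and three batches were averaged.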
UAACAAGGGGCCACUGCAGAAUCGUUCGCGUCGCAGCCCCUGUCAGAUUCUGGUGAAUCUGCGAAUUCUGCUGUAUAUCUC: the self-cleavage came to 0.05.

On to UAACAAGGGGCCACAGCAGAAGCGUUCACGUCGCAGCCCUCGUCAGAUUCUGGUGAAUCUGCGAAUUCUGCAGUAUAUCUC, for which the self-cleavage is 0.31.

In the case of UAACAAGGGGCCACAGCAGAGGCGUUCACGUCGCAGCCCCUGUCAGACUCUGGUGAAUCUGCGAGUUCUGCUGUAUAUCUC, the self-cleavage worked out at 0.16.

With UAACAAGGGGCCACAGCGGAAGCGUUCACGUCGCAGCCCCUGGCGGAUUCUGGUGAAUCUGCGAAUUCUGCUGUAUAUCUC, the self-cleavage worked out at 0.06.

Take UAACAAGGGGCCACUGCAGAAGCAUUCACGUCGCAGCCCCUGUCAGAUUCUGGUGAAUCUGCGAAUUCUGCAGUAUAUCUC: the self-cleavage worked out at 0.17.

Regarding UAACAAGGGGCUACAGCAGAAGCGUUCACGUCGCAGCCCCUGUCAGAUUCUGGUGGAUCCGAGAAUUCUGCUGUAUAUCUC, the self-cleavage worked out at 0.15.

Consider UAACAAGGGGCCACAGCAGAAGCGUUCACGUCGCAGCCCCUGUCAGUUUCUGCCGAAUCUGCGAAUUCUGCUGUAUAUCUC, for which the self-cleavage came to 0.21.

As for UAACAAGGGGCCACAGGAGAAGCGUUCACGUCGCGGCCCCAGUGGGAUUCUGUUGAAUCUGCGAAUUCUGCUGUAUAUCUC, the self-cleavage was 0.22.

As for UAACAAGGGGCCAUAGCAGAAGCGUUCACGUCGCCGCCCCUGUCAGAUUCUGGUGAAUCUGCGAAUUCUGCUGUAUAUCUC, the self-cleavage was found to be 0.3.

UAACAAGGGGCCACUGCAGAAGCGUUCACGUCGCAGCCCCUGUCAGAUACUGGUGUAUCUGCGAAUGCUGCUGUAUAUCUC: the self-cleavage was 0.09.

Take UAACAAGGGGCCACAGCAGAAGCGUUCUCGACGCUGCACCUGUCAGAUUCUGGUAAAUCUGCGAAUUCUGCUGUAUAUCUC: the self-cleavage came out at 0.04.

In the case of UAACAAUGGGCCACGGCGGAAGCGUUCACGUCGCAGCCCCUGUCAGAUUCUGGUGAAACUGCGAAUUCUGCUGUAUAUCUC, the self-cleavage was 0.12.

UAACAAGGGGCCACAGCAGAAGCGUUCACGUCGCAGCCCCUGUCAGAUUCUGGUGAGUCCGCGAAUUCUGCUGUAUAUCUC: the self-cleavage turned out to be 0.13.

Consider UAACAAGGGGCCACAGCAGAAGCGUUCACGUCGCAGCCCCUGUCAGGUUCUGGUGAGUCUGCGAAUUCUGCUGUAUAUCUC, for which the self-cleavage worked out at 0.38.

With UAACAAGGGGCCACAGCAGCAGCGUACACGUCGCAGCCCCUGUCAGAUUCUGGUGAAUCCGCGAAUUCUGCUGUAUAUCUC, the self-cleavage was determined as 0.06.

For UAACAAGGGGCCACAGCAGAAGCGUUCACGUCGCAGCCCCUGUCAGAUUCUGGUGUAUCUGCGAAUCCUGCUGUAUAUCUC, the self-cleavage was 0.07.

For the variant UAACAAGGGGCAACAGCAGCAGCGUUCACGUCGCGGCCCCUGUCAGAUUCUGGUGAAUCUGCGGAUUCUGCCGUAUAUCUC, the self-cleavage amounted to 0.03.

On to UAACAAGGGGCCACAGCAGAAGCGUUCACGUCGCAGCCCCUGUCAGAUUCUGGUGUAUCUGCGAAUUCCGCUGUAUAUCUC, for which the self-cleavage was determined as 0.13.

Turning to UAACAAGGGGCUACAGCAGAAGUGUUCACGUCGCAGCCCCUGUCAGAUUCUGGUGGAUCUGGGAAUUCUGCUGUAUAUCUC, the self-cleavage is 0.23.

As to UAACAAGGGGCCACAGCAGAAGCGUUCACGUCGUAGCCCCUGUCAGAUUCAGGUGAAUCUGCGAAUUCUGCUGUAUAUCUC, the self-cleavage was determined as 0.26.

Consider UAACAAGGGGCCACAGCAGAAGCGUUCACGUCGCAGGCCCUGUCAGAUUCUGGUGAAUCUGCGGAUUCUGCUGUAUAUCCC, for which the self-cleavage is 0.95.

On to UAACAAGGGGCCACAGCAGUAGCGAUCACGUCGCAGCCCCUGUCAGAAUCUGGUGAAUCUGCGAGUCCUGCUGUAUAUCUC, for which the self-cleavage was determined as 0.1.

With UAACAAGGGGCCACAGCAGAAGCGUUCACGUCGCAGCCCCUGUCAGUUUCUGGUGAAUCUGCGAAUCCUGCUGUAUAUCUC, the self-cleavage came out at 0.13.

For UAACAAGGGGCCACAGCAGAAGCGUUCACGUCGCAGCCCCUGUCAGAUUCUGGUGAAUCUGUGUAUUCUGCCGUAUAUCUC, the self-cleavage came to 0.08.

For UAACAAGGGGCCACAGCAGAAGCGUUCGCGUCGCAGCCCCUGUCAGGUUCUGGUGAAUCUGCGAAUUCUGCUGUAUAUCUC, the self-cleavage worked out at 0.31.

With UAACAAGUGGCCGCAGCAGAAGCGUUCACGUCGCAGCCCCUGUCAGAUUCUGGUGUAUCUGCGAAUUCUGCUGUAUAUCUC, the self-cleavage was found to be 0.17.

Take UAACAAGGGGCCACAGCAGUAGCGUUCACGUCGCAGCCCCCGUCAGAUUCUGGUCAAUCUGCGAAUUCUGCAGUAUUUCUC: the self-cleavage amounted to 0.07.

With UAACAAGGGGCCACAGCGGAAGCGUUCACGUCGCAGCCCCUGUCAGAUUCUGGUGAAUCUGCGAAUUCUGCUGCAUAUCUC, the self-cleavage worked out at 0.13.

For UAACAAGGGGCCACAGCGGAAGCGUUCACGUCGCAGCCCCUGUCAGAAUCUGGAGAGUCUGCGAAUUCUGCUGUAUAUCUC, the self-cleavage is 0.16.

UAACAAGGGGCCACAGCAGAAGCGUUCAUGUCGCAGCCCUUGUCAGAUUCUGGUGAAUCUGCGAAUACUGCUGUAUAUCUU: the self-cleavage is 0.1.

Take UAACAAGGGACCACAGCAGAAGCGUUCACGUCGCAGCCCUUGUCAGAUUCUGGUGAAUCUGCGAAUUCUGCUGUAUAUCUC: the self-cleavage was 0.3.

For UAACAAGGGGCCACAGCAGAAGCGUUCACGUCGCAGCCCCUGUCAGUUUCUGGUGAAUCUGCGAGUUCUGCUGCAUAUCUC, the self-cleavage was determined as 0.07.

For UAACAAGGGGCCACAGCAGAGGCGUUCGCGUCGCAGCCCCUGUCAGAUUCUGGUGAAUCUGCGAAUCCUGCUGUAUAUCUC, the self-cleavage came out at 0.06.

With UAACAAGGGGCCACAGCAGAAGCGUUCACGUCGCAGCCCCUGUCAGGUUCUGGUGAAUCUGCGAAUACUGCUGUAUAUCUC, the self-cleavage came to 0.08.
